Values joined by “and” are separate entries in the source; they are usually repeats but may differ in a detail not shown here. Equal entries are not always repeated. Screen size: about 410,000 compounds; about 6,400 (1.6%) were called active. Inconclusive means that the source gave no clear call. Such entries were picked first, then a sample of the others. Calls follow the shape of the dose curve; as a rule, active = well fitted inhibition curve with a large enough effect; inconclusive = small, poorly fitted or top-dose-only effect; inactive = no such curve, though single readings can be large or run the other way. Potencies beside an inconclusive call are fits to weak or partial responses and may not hold up.
Biological target: Glucagon-like peptide 1 receptor (Homo sapiens) (UniProt P43220)
Assay: qHTS of GLP-1 Receptor Inverse Agonists (Inhibition Mode); also: nearly all actives have a fitted effect of over 55% in size
Details: HEK293 GLP-1R CRE-luciferase, luminescence, 24 h, GLP-1R form is constitutively active; activity change, negative = inhibition: at 38.3 µM (top of the series) unless noted
How it was run: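 Using stably transfected HEK293 (constitutively active GLP-1R, cAMP-luciferase reporter), compounds were incubated 24 hr and luciferase measured by luminescence.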
% is scaled to controls: 0 for no effect and ±100 for the full control effect; potency is read from the fitted curve at half-maximal effect; tags tell the direction and shape of the fitted curve.

UniProt P43220, sequence (P43220 whole entry, looked up): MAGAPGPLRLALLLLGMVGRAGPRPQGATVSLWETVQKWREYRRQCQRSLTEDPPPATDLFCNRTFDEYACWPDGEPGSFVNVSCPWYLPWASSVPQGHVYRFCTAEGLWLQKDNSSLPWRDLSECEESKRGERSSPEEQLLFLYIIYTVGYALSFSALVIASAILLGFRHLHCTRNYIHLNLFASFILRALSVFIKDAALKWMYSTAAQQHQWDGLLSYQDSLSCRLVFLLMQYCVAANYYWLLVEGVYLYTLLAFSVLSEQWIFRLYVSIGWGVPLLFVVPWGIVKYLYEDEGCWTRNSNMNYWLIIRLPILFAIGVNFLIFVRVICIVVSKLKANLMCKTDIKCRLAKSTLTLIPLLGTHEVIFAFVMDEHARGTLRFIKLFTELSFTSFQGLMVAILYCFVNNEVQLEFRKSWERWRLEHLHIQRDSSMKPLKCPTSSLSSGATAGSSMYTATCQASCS

Potency, inconclusive:
Cc1ccc(S(=O)(=O)CCC(=O)NCCN2C(=O)S/C(=C/c3ccc(F)cc3)C2=O)cc1 22.4 µM [inhibitor, single point], Cc1cc2cc(CNC(=O)c3ccc(S(=O)(=O)N4CCCCC4)cc3)ccc2n1C 22.4 µM [inhibitor, single point], CN(C)CCN(C(=O)C1=COCCO1)c1nc2ccc(F)cc2s1 22.4 µM [inhibitor, single point], Cc1ccc(C(C)C)c(OCc2ccc(C(=O)N/N=C/c3ccc(O)c(O)c3)cc2)c1 6.31 µM [inhibitor, partial curve, poor fit], O=C(NCCCc1ccccc1)Nc1ccccc1 14.1 µM [inhibitor, single point], Fc1ccc(CNC(=S)Nc2ccc(OC(F)F)cc2)cc1 10 µM [inhibitor, partial curve, poor fit], CCCCn1c(NCc2cc(C)ccc2O)nc2ccccc21 14.1 µM [inhibitor, single point], CC(=O)Oc1ccc(C(=O)Nc2ccc3c(c2)OCCO3)cc1 7.08 µM [inhibitor, single point], COc1cccc(-c2nn(C)c3sc(C(=O)NCc4ccc(C)o4)cc23)c1 12.6 µM [inhibitor, single point], CC(C)N1CCc2c(sc(NC(=O)c3ccc(S(=O)(=O)N(C)C4CCCCC4)cc3)c2C(N)=O)C1 28.2 µM [inhibitor, single point], O=C(NC1CCCC1)c1ccc(CS(=O)(=O)c2cccc(C(F)(F)F)c2)o1 28.2 µM [inhibitor, single point], CC(C)c1ccc2c(c1)[C@H]1OCC[C@H]1[C@@H](c1cccs1)N2 5.62 µM [inhibitor, full curve, poor fit], CCOC(=O)N/N=C/c1ccc(Oc2ccccc2)cc1 28.2 µM [inhibitor, single point], CCOc1c(S(=O)(=O)NC2CC(C)(C)NC(C)(C)C2)ccc(Cl)c1Cl 6.31 µM [inhibitor, partial curve, poor fit], CN(CC(=O)Nc1ccc(S(=O)(=O)N2CCCC2)cc1)Cc1ccc(Cl)cc1Cl 15.8 µM [inhibitor, single point], NC(c1ccccc1)c1csc(Nc2ccc(C(F)(F)F)cn2)n1 (stereo not drawn) 10 µM [inhibitor, partial curve, poor fit], O=C(NC1CCCCC1)C(c1cccnc1)N(C(=O)CCl)c1ccc(F)cc1 (stereo not drawn) 0.891 µM [inhibitor, full curve, poor fit], CCCCN=Cc1c(C)[nH]n(-c2ccccc2)c1=S 14.1 µM [inhibitor, single point], COCCOC(=O)C1=C(C)N(Cc2ccccc2)C(=O)NC1c1ccc(OC)cc1 (stereo not drawn) 17.8 µM [inhibitor, partial curve, poor fit], COc1cccc2cc(C(=O)N3CCCc4ccccc43)oc12 14.1 µM [inhibitor, single point], C#CCOCCOCCOCCNc1nc(N2CCOCC2)nc(N2CCN(C(=O)CCCCCCCCCCNC(=O)[C@@H]([C@H](C)CC)n3cc(CCCCCN)nn3)CC2)n1 28.2 µM [inhibitor, single point], Cc1ccc(NS(=O)(=O)c2cccc(C(=O)NCC(c3ccco3)N3CCCCC3)c2)cc1 (stereo not drawn) 10 µM [inhibitor, partial curve, poor fit], COC(=O)[C@@]12CCCCN1[C@H](c1ccc(-c3ccc(C(C)=O)cc3)c(OC)c1)[C@@H]1C(=O)N(C)C(=O)[C@@H]12 22.4 µM [inhibitor, partial curve, poor fit], CN(CCCNC(=O)Cn1ncc2c([nH]c3ccccc32)c1=O)Cc1ccccc1 28.2 µM [inhibitor, single point], CN1CCC(N(C)C(=S)NC(=O)C23CC4CC(CC(C4)C2)C3)CC1 10 µM [inhibitor, partial curve], O=C(NCCc1ccccc1)[C@@H]1CC=C[C@@H]2CCN(Cc3ccccc3)C(=O)[C@@H]21 6.31 µM [inhibitor, partial curve, poor fit], COc1ccc(CNC(=O)c2cc3c(s2)CN(Cc2ccccc2)C3)cc1 4.47 µM [inhibitor, partial curve], Cc1cccc(CSc2ncnc3ccccc23)c1 14.1 µM [inhibitor, partial curve, poor fit], COc1ccc(-c2ccc(C(=O)NCCc3ccccc3)c3occc23)c(C)c1 3.98 µM [inhibitor, full curve, poor fit], O=C(COc1cccc(C(F)(F)F)c1)N1CCN(c2ccccc2O)CC1 31.6 µM [inhibitor, single point], COc1ccccc1NC(=O)N(CCN1CCCC1)Cc1cc2cc(C)ccc2[nH]c1=O 11.2 µM [inhibitor, single point], CC(=O)c1c(O)cc2n(c1=O)-c1ccc(Cl)cc1C2(C)C 3.55 µM [inhibitor, full curve, poor fit], COc1cccc(CN(C)C(=O)c2ccccc2Sc2ccccc2C#N)c1 10 µM [inhibitor, single point], CCc1ccc(NC(=O)C2CCCN(S(=O)(=O)c3cccc4cccnc34)C2)cc1 (stereo not drawn) 28.2 µM [inhibitor, single point], O=C(NCCc1c[nH]c2ccccc12)C1CCN(S(=O)(=O)c2ccc(F)cc2)CC1 1 µM [inhibitor, full curve, poor fit], CCCc1cc(C(=O)Nc2cc(C)nn2-c2ccccc2)no1 10 µM [inhibitor, partial curve, poor fit], Cc1ccc(CNC(=O)c2sc3ncnc(N(C)C4CCCCC4)c3c2C)cc1 10 µM [inhibitor, partial curve, poor fit], O=S(=O)(/N=C(/Nc1cccc2ccccc12)c1ccccc1)c1cccs1 20 µM [inhibitor, single point], CCc1ccc2ncc(C(=O)c3ccccc3)c(N3CCOCC3)c2c1 3.55 µM [inhibitor, partial curve, poor fit], O=C(CNC1CCCCC1)NN=C(c1ccccc1)c1ccccc1 28.2 µM [inhibitor, single point], S=C(NC1CCCCCC1)NC1CCCC1 14.1 µM [inhibitor, single point], CCOC(=O)CCC(=O)N(CCN(C(=O)CCC(=O)OCC)c1ccccc1)c1ccccc1 0.501 µM [inhibitor, full curve, poor fit], Cc1nc2c3cc(F)ccc3n(Cc3ccccc3F)c2s1 14.1 µM [inhibitor, single point], Cc1ccccc1S(=O)(=O)Oc1ccc2ccc(O)cc2c1 10 µM [inhibitor, partial curve, poor fit], CCN(CC)c1ccc(C(=O)Nc2ccc3nc(N(CC)CC)cc(C)c3c2)cc1 2.51 µM [inhibitor, partial curve, poor fit], Cc1ccccc1-c1noc(CCC(=O)NC2CCCCC2)n1 10 µM [inhibitor, single point], Cc1ccc(C)c(-c2ccc(=O)n(Cc3ccc(F)cc3Cl)n2)c1 28.2 µM [inhibitor, single point] and 11.2 µM [inhibitor, partial curve, poor fit]

Activity change, negative = inhibition, inactive:
CCOC(=O)c1oc2nc3c(cc2c1N)CCCC3 -14.2%, COc1ccc(OCc2cc(C(=O)NCC3CCOCC3)no2)c(Cl)c1 -21.7%, CC1CCN(c2csc3ccc(F)cc3c2=O)CC1 11.1%, O=C(Nc1cccc2ccccc12)c1csc([C@@H]2O[C@H](CO)[C@H](O)[C@H](O)[C@H]2O)n1 10.3%, Cc1ccccc1CNC(=O)C(=O)NCC(c1ccc2c(c1)OCO2)N1CCOCC1 (stereo not drawn) 6.61%, Cc1ccc2c(c1)-c1c(cnn1CC(=O)N1CCN(c3cc(C)ccc3C)CC1)CO2 4%, COc1ccc(CCN(C)CCCN2CC(c3ccccc3)CC2=O)cc1OC (stereo not drawn) -4.51%, Cc1ccccc1NC(=O)C1CCN(S(=O)(=O)c2ccccc2)CC1 7.82%, CN(Cc1ccccc1)C(=O)Cn1c(=O)c2cccn2c2ccc(F)cc21 -8.15%, CCC12CN3CCN(CC(C3)/C1=N\NC(=O)Nc1ccccc1)C2 -19.6%, COc1cc(/C=N/S(=O)(=O)CCc2ccccc2)cc(OC)c1O 4.1%, COc1ccc(C(=O)NCC(=O)N/N=C/c2cccc(OC(=O)c3ccco3)c2)cc1OC 11.2%, O=C(CCCCCn1c(=S)[nH]c2cc3c(cc2c1=O)OCO3)NCCc1ccccc1 0.001%, C(=N\N1CCN(Cc2cccc3ccccc23)CC1)/c1cccnc1 0%, CCOC(=O)CNC(=O)CC(c1cc(OC)c(OC)c(OC)c1)N1Cc2ccccc2C1=O (stereo not drawn) 13.6%, O=C(Nc1ccc2c(c1)C(=O)N(c1ccccc1)C2=O)c1cccs1 24%
